Test results reported in PubChem BioAssay AID1745853 (National Center for Advancing Translational Sciences (NCATS), 2022).
The other results are listed elsewhere or left out. The main result of the screen is listed elsewhere. These columns were measured beside it and carry no call.

Assays:
Experiment in all cases: Primary Screen for Target Class Profiling of Small Molecule Inhibitors of Methyltransferases
[1] = target: Glycine N-methyltransferase (Homo sapiens) (UniProt Q14749); settings: purified enzyme, MTase-Glo SAH luminescence; measured here: GNMT inhibition; at 40 µM; stronger effect = lower value
Outline: (§1)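 Each enzyme was reacted with SAM and its substrate, with compounds tested once at 40 uM; SAH formed was read by MTase-Glo luminescence.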

[2] = target: Guanidinoacetate N-methyltransferase (Homo sapiens) (UniProt Q14353); settings: purified enzyme, MTase-Glo SAH luminescence; measured here: GAMT inhibition; at 40 µM; stronger effect = lower value
Outline: as §1

[3] = target: Histamine N-methyltransferase (Homo sapiens) (UniProt P50135); settings: purified enzyme, MTase-Glo SAH luminescence; measured here: HNMT inhibition; at 40 µM; stronger effect = lower value
Outline: as §1

[4] = target: Nicotinamide N-methyltransferase (Homo sapiens) (UniProt P40261); settings: purified enzyme, MTase-Glo SAH luminescence; measured here: NNMT inhibition; at 40 µM; stronger effect = lower value
Outline: as §1

[5] = target: Phenylethanolamine N-methyltransferase (Homo sapiens) (UniProt P11086); settings: purified enzyme, MTase-Glo SAH luminescence; measured here: PNMT inhibition; at 40 µM; stronger effect = lower value
Outline: as §1
On the % scale 0 is the no-effect control and ±100 the full control effect.

`N#Cc1ccc(COc2ccc(-c3cccc4nc(NC(=O)C5CC5)nn34)cc2)cn1` was tested, and the activity change, negative = inhibition [1] was -17.1%, the activity change, negative = inhibition [2] was 6.92% and the activity change, negative = inhibition [3] was -0.923%. It also gave an activity change, negative = inhibition [4] of -10.8% and an activity change, negative = inhibition [5] of -4.9%.
Molecule `CC(C)CCNC(=O)C1(C)Cn2nc(C(=O)NCc3ccccc3Cl)cc2C(=O)N1C` (stereo not given) has an activity change, negative = inhibition [1] of -1.87%, an activity change, negative = inhibition [2] of 3.73% and an activity change, negative = inhibition [3] of 1.33%. The activity change, negative = inhibition [4] was 2.68% and the activity change, negative = inhibition [5] was -1.62%.
`FC(F)(F)Oc1ccc(-c2ccc3nnc(C(F)(F)F)n3c2)cc1` was tested, and the activity change, negative = inhibition [1] was -5.27%, the activity change, negative = inhibition [2] was -13.3% and the activity change, negative = inhibition [3] was 2.91%. For the same molecule, the activity change, negative = inhibition [4] was -26.1% and the activity change, negative = inhibition [5] was -7.85%.
In the case of `CCCn1c(=O)c2ccc(C(=O)NCC(C)C)cc2n2c(SCC(=O)Nc3cccc(F)c3)nnc12`, the activity change, negative = inhibition [1] is reported as 3.4%, the activity change, negative = inhibition [2] is reported as 0% and the activity change, negative = inhibition [3] is reported as 5.99%. For the same molecule, the activity change, negative = inhibition [4] was -12.7% and the activity change, negative = inhibition [5] was -0.231%.
With `CCc1ccc(CN2C(=O)c3cc(C(C)(C)C)nn3CC2(C)C(=O)NCc2ccccc2)cc1` (stereo not given) the activity change, negative = inhibition [1] was 0.983%, the activity change, negative = inhibition [2] was 0% and the activity change, negative = inhibition [3] was 1.51%. For the same molecule, the activity change, negative = inhibition [4] was 1.03% and the activity change, negative = inhibition [5] was -4.07%.
With `CC(=O)C1(C)CCC2C3C=C(C)C4=CC(=O)CCC4(C)C3CCC21C` (stereo not given) the activity change, negative = inhibition [1] was -18.7%, the activity change, negative = inhibition [2] was 8.07% and the activity change, negative = inhibition [3] was -1.24%. For the same molecule, the activity change, negative = inhibition [4] was -28.8% and the activity change, negative = inhibition [5] was -7.53%.
In the case of `COc1cccc(CN2C(=O)c3nc4ccccc4n3CC2(C)C(=O)NC2CCCCC2)c1` (stereo not given), the activity change, negative = inhibition [1] is reported as 4.89%, the activity change, negative = inhibition [2] is reported as 0% and the activity change, negative = inhibition [3] is reported as 4.11%. For the same molecule, the activity change, negative = inhibition [4] was 7.21% and the activity change, negative = inhibition [5] was 0.496%.
Work on `CC(=O)N(C)CCc1noc(C2CN(Cc3c(F)cccc3Cl)C2)n1` yielded an activity change, negative = inhibition [1] of -6.89%, an activity change, negative = inhibition [2] of -0.082% and an activity change, negative = inhibition [3] of -1.31%. It also gave an activity change, negative = inhibition [4] of -1.55% and an activity change, negative = inhibition [5] of -22.4%.
`O=C(c1ccc(F)cc1)N1CCC[C@H](c2nc(-c3ccc(F)cc3)no2)C1` gave an activity change, negative = inhibition [2] of -3.55%, an activity change, negative = inhibition [4] of -15.7% and an activity change, negative = inhibition [5] of -14.4%.
`CCC(C)NC(=O)c1ccc2c(=O)n(CCC(C)C)c3nn(Cc4ccc(Cl)cc4)c(=O)n3c2c1` (stereo not given) gave an activity change, negative = inhibition [1] of -1.05%, an activity change, negative = inhibition [2] of 3.57% and an activity change, negative = inhibition [3] of 1.49%. The activity change, negative = inhibition [4] was -0.32% and the activity change, negative = inhibition [5] was -1.17%.
With `CCCSCCCN1C(=O)c2cc3ccccc3n2CC1(C)C(=O)NC1CCCCCC1` (stereo not given) the activity change, negative = inhibition [1] was 2.37%, the activity change, negative = inhibition [2] was 0% and the activity change, negative = inhibition [3] was 2.85%. For the same molecule, the activity change, negative = inhibition [4] was -1.13% and the activity change, negative = inhibition [5] was -1.99%.
Molecule `CCOC(=O)c1cc2n(n1)CC(C)(C(=O)NCc1ccccc1)N(CCc1cccs1)C2=O` (stereo not given) has an activity change, negative = inhibition [1] of -6.09%, an activity change, negative = inhibition [2] of -2.49% and an activity change, negative = inhibition [3] of 0.173%. The activity change, negative = inhibition [4] was -3.29% and the activity change, negative = inhibition [5] was -4.26%.
In the case of `Cc1nn2c(c1-c1ccnn1C(C)C)N(C(=O)COc1ccccc1C(N)=O)CCC2`, the activity change, negative = inhibition [1] is reported as -7.94%, the activity change, negative = inhibition [2] is reported as -7.08% and the activity change, negative = inhibition [3] is reported as -4.61%. The activity change, negative = inhibition [4] was -9.99% and the activity change, negative = inhibition [5] was -6.16%.
`CC1CCN(C(=O)CC#N)CC1N(C)c1ncnc2[nH]ccc12` (stereo not given) was tested, and the activity change, negative = inhibition [1] was 1.66% and the activity change, negative = inhibition [3] was 4.08%.
`Cc1ccc(Cl)cc1N(CC(=O)Nc1c(F)cccc1F)S(C)(=O)=O` showed an activity change, negative = inhibition [1] of 7.73%, an activity change, negative = inhibition [2] of 3.51% and an activity change, negative = inhibition [3] of 10.5%. The activity change, negative = inhibition [4] was -10.3% and the activity change, negative = inhibition [5] was -0.148%.
`Cc1cc(C(=O)N[C@@H]2CCC[C@@H](C(=O)NC3CC3)CC(=O)N(C)C2)nn1C` gave an activity change, negative = inhibition [1] of 1.06%, an activity change, negative = inhibition [2] of 0.796% and an activity change, negative = inhibition [3] of -0.512%. It also gave an activity change, negative = inhibition [4] of 0.8% and an activity change, negative = inhibition [5] of -1.55%.
With `C=CC1(C)CC(OC(=O)/C(C)=C\COC(C)=O)C(C(=C)C(=O)O)C(O)C1C(=C)CO` (stereo not given) the activity change, negative = inhibition [1] was 5.79%, the activity change, negative = inhibition [2] was 8.42% and the activity change, negative = inhibition [3] was 8.41%. It also gave an activity change, negative = inhibition [4] of -4.95% and an activity change, negative = inhibition [5] of 7.5%.
`CCC(C)NC(=O)c1ccc2c(=O)n(C)c3nnc(SCc4ccc(C)cc4)n3c2c1` (stereo not given) was tested, and the activity change, negative = inhibition [1] was 5.29%, the activity change, negative = inhibition [2] was 0% and the activity change, negative = inhibition [3] was 7.42%. The activity change, negative = inhibition [4] was 2.43% and the activity change, negative = inhibition [5] was 4.83%.
With `CCN1CCN(Cc2ccc(NC(=O)c3ccc(C)c(/C=C/c4cnc5[nH]ccc5c4OC)c3)cc2C(F)(F)F)CC1` the activity change, negative = inhibition [1] was -4.01%, the activity change, negative = inhibition [2] was -2.03% and the activity change, negative = inhibition [3] was -5.92%. The activity change, negative = inhibition [4] was -21.5% and the activity change, negative = inhibition [5] was -3.94%.
Molecule `CNC(=O)N1C[C@@H](Oc2ccccc2)C[C@H]1C(=O)NCCOC` has an activity change, negative = inhibition [1] of -0.003%, an activity change, negative = inhibition [2] of 1.1% and an activity change, negative = inhibition [3] of 2.83%. It also gave an activity change, negative = inhibition [4] of -6.22% and an activity change, negative = inhibition [5] of -5.17%.
Work on `C=C1CCC2[C@](C)(CCC[C@@]2(C)C=O)[C@H]1CC/C(C)=C/CO` (stereo not given in full) yielded an activity change, negative = inhibition [1] of 0%, an activity change, negative = inhibition [2] of 3.89% and an activity change, negative = inhibition [3] of -4.08%. The activity change, negative = inhibition [4] was -24.2% and the activity change, negative = inhibition [5] was -1.06%.
Work on `COc1ccccc1C(=O)N(Cc1ccccc1)S(=O)(=O)c1ccc2c(c1)n(C)c(=O)n2C` yielded an activity change, negative = inhibition [1] of -0.995%, an activity change, negative = inhibition [2] of 4.07% and an activity change, negative = inhibition [3] of -8.37%. The activity change, negative = inhibition [4] was -2.3% and the activity change, negative = inhibition [5] was -4.12%.
`O=C1CN(Cc2ccccc2)S(=O)(=O)c2ccccc2N1Cc1ccc(F)cc1` showed an activity change, negative = inhibition [1] of 9.51%, an activity change, negative = inhibition [2] of 0% and an activity change, negative = inhibition [3] of 8.37%. For the same molecule, the activity change, negative = inhibition [4] was 2.21% and the activity change, negative = inhibition [5] was 1.57%.
Work on `Cc1ccc(Cn2c(=O)c3ccc(C(=O)NC(C)C)cc3n3c(=O)n(Cc4ccccc4C)nc23)cc1` yielded an activity change, negative = inhibition [1] of 5.2%, an activity change, negative = inhibition [2] of 3.05% and an activity change, negative = inhibition [3] of 4.39%. For the same molecule, the activity change, negative = inhibition [4] was 2.62% and the activity change, negative = inhibition [5] was 3.49%.
`CCCn1c(=O)c2ccc(C(=O)NCC(C)C)cc2n2c(=O)n(CC(=O)Nc3ccc(C)cc3)nc12` gave an activity change, negative = inhibition [1] of 2.57%, an activity change, negative = inhibition [2] of 0.032% and an activity change, negative = inhibition [3] of 3.43%. The activity change, negative = inhibition [4] was 2.74% and the activity change, negative = inhibition [5] was 3.14%.
`Cn1nnc(-c2ccc(-c3ccc(N4C[C@H](CO)OC4=O)cc3F)cn2)n1` showed an activity change, negative = inhibition [1] of -5.07%, an activity change, negative = inhibition [2] of 4.76% and an activity change, negative = inhibition [3] of 7.59%. It also gave an activity change, negative = inhibition [4] of -7.17% and an activity change, negative = inhibition [5] of 4.63%.
In the case of `CN[C@@H](C)C(=O)N1CC[C@H](NC(=O)Cc2cccs2)C[C@H]1C(=O)N[C@@H](Cc1ccc(OC)cc1)C(N)=O`, the activity change, negative = inhibition [1] is reported as -6.63%, the activity change, negative = inhibition [2] is reported as -1.86% and the activity change, negative = inhibition [3] is reported as 0.305%. The activity change, negative = inhibition [4] was -19.8% and the activity change, negative = inhibition [5] was -10.8%.
Work on `C=C(COC(=O)CC(C)C)C1Cc2cc(C(C)=O)ccc2O1` (stereo not given) yielded an activity change, negative = inhibition [1] of 1.23%, an activity change, negative = inhibition [2] of 6.25% and an activity change, negative = inhibition [3] of 10.5%. For the same molecule, the activity change, negative = inhibition [4] was -11.9% and the activity change, negative = inhibition [5] was 2.52%.
For `CC(=O)N1CCC(N[C@@H]2C[C@H](Cn3cc(-c4cccnc4)nn3)[C@@H](O)[C@H]2O)CC1`, the activity change, negative = inhibition [1] was -2.49%, the activity change, negative = inhibition [2] was -7.87% and the activity change, negative = inhibition [3] was -2.47%. It also gave an activity change, negative = inhibition [4] of -7.89% and an activity change, negative = inhibition [5] of -4.86%.
For `Cc1ccccc1NS(=O)(=O)c1ccc2c(c1)n(C)c(=O)n2C`, the activity change, negative = inhibition [1] was 1.83%, the activity change, negative = inhibition [2] was 0% and the activity change, negative = inhibition [3] was 10.5%. It also gave an activity change, negative = inhibition [4] of 12.4% and an activity change, negative = inhibition [5] of 3.88%.
`COCCCNc1ccnc(-c2nnc(C)n2-c2ccccc2)c1` showed an activity change, negative = inhibition [1] of -5.98%, an activity change, negative = inhibition [2] of -1.26% and an activity change, negative = inhibition [3] of -12.8%. For the same molecule, the activity change, negative = inhibition [4] was -6.46% and the activity change, negative = inhibition [5] was 0.721%.
